Measured values as given in patent US20190359732A1 (Memorial Sloan Kettering, published 2019).

Molecular target: T1, CD3 on human T cells (human, UniProt P07766; P09693; P04234)
T1 construct: also called CD3+ T cells
Test: FACS on CD3+ T cells; reference huOKT3

B1: HER2-BsAb (HER2/CD3 bispecific binding molecule, IgG-scFv format) (bispecific antibody)
heavy: [about 450 residues with a human IgG1 Fc left out here]
light: [about 200 residues left out here]TSGGGGSGGGGSGGGGSQVQLVQSGGGVVQPGRSLRLSCKASGYTFTRYTMHWVRQAPGKGLEWIGYINPSRGYTNYNQKFKDRFTISRDNSKNTAFLQMDSLRPEDTGVYFCARYYDDHYCLDYWGQGTPVTVSSGGGGSGGGGSGGGGSDIQMTQSPSSLSASVGDRVTITCSASSSVSYMNWYQQTPGKAPKRWIYDTSKLASGVPSRFSGSGSGTDYTFTISSLQPEDIATYYCQQWSSNPFTFGQGTKLQITR
notes: also called HER2/CD3 bispecific antibody
  fold less binding than huOKT3: > 20 fold
